The record followed here is the RNAGym collection of RNA variant scans (doi:10.7554/elife.90254).

To fix the notation:
B1: OR4K15 (parent)
chain: GUUAACGGUCAUAGGCCAUGGAAACUAGGAGCACCAUUUCGCUGCCAGUGAAGAAAUGAACAAAGAAAAUCUGGGCCAGGCAGGCAUCAAAAGAAAUAGUCUUGCGCUCAACCAGAAAGUCUGUAAUCAUUUUAAGGGUA

Read counts are not given, so values of variants with three or more changes are uncertain.

The series covers variants of B1. The experiment in a line: self-cleavage, relative activity (ratio to wild type); higher = more cleavage; in vitro, sequencing; the parent is a self-cleaving ribozyme.
A23G U26C A55G: the self-cleavage turned out to be 1.32.
For A23G U72A U87C, the self-cleavage was found to be 0.16.
In the case of A23U G29C C109A U120C, the self-cleavage worked out at 0.09.
A23G A110U A118U: the self-cleavage was 0.43.
As for A23G A33U A59G, the self-cleavage is 1.04.
With A24G A33G U127C, the self-cleavage was 0.34.
In the case of A23G U122C U130C, the self-cleavage is 1.13.
In the case of A24C U43C G84A, the self-cleavage was 1.48.
For the variant A23G U87C U130C, the self-cleavage is 0.18.
With A23G A64G A78U A96C U131C the figure was 0.08; with A23G A30G A54C A60G A91G A96G U108C, 0.03; with A23U A59U U103C U131C, 0.28.
Regarding A24G A33U A91G U102C, the self-cleavage was 2.22.
Turning to A23G A69U U70C U72C G79U, the self-cleavage amounted to 0.18.
Under A23G A52G G53A A89G U100C U124A stands 1.37; under A23G A55C A60G U133C, 0.08.
In the case of A23G A111U A117U, the self-cleavage turned out to be 0.05.
For A23G A55G A110G, the self-cleavage turned out to be 0.07.
On to A23G U43C G50A U70A A96G U127C A134U, for which the self-cleavage stood at 0.23.
Regarding A23G A94G U139C, the self-cleavage came out at 1.54.
Turning to A23G A56G U97A A126G, the self-cleavage is 1.36.
Consider A24G A36C A51G A66U U108C A117G, for which the self-cleavage amounted to 0.02.
With A23G A24G U43C A60G, the self-cleavage amounted to 0.86.
On to A23G A78G A82G A86G, for which the self-cleavage turned out to be 0.09.
In the case of A23G A56U U102A, the self-cleavage is 0.27.
With A23U A78G A117U the figure was 0.15; with A24G A36C A51U A56G, 1.52; with A23G C46U A92G A114G, 0.38.
For the variant A23G U70C A116G, the self-cleavage turned out to be 1.58.
With A23G G48U A78C, the self-cleavage is 0.32.
For the variant A23U A78G A111G U120C, the self-cleavage amounted to 0.02.
With A23G U49A A86G A129U the figure was 0.26.
With A23G C34U A82U U100C A110G A118G the figure was 0.13; with A24G A30G U103C, 0.8.
Turning to A23G A66U A67G, the self-cleavage turned out to be 0.89.
As to A23G A66C A68G U70A A118G U127C, the self-cleavage worked out at 0.18.
For the variant A24C A66G A116G, the self-cleavage came out at 0.83.
As to A24G A47U U49C A67G U103C A110U, the self-cleavage came to 0.24.
For the variant A23U A30G A90G, the self-cleavage is 0.82.
As to A23G A24G U43C G44U U49A A78U, the self-cleavage is 0.43.
With A23G A51G A68G, the self-cleavage is 1.83.
Regarding A24C U38C U43A A67C A95G, the self-cleavage is 1.86.
Consider A23G A27G U38C A78G U131C, for which the self-cleavage came out at 0.06.
Consider A23G A91G U120C, for which the self-cleavage was 0.76.
Turning to A23G A66G A78G C112U, the self-cleavage worked out at 0.02.
Under A23G A69G U72A A118G stands 0.22.
As for A23G G58A A59C A134G, the self-cleavage turned out to be 0.54.
Take A24C A90G A118G A140G: the self-cleavage was 0.25.
On to A23G A51G A64G C77U, for which the self-cleavage turned out to be 1.3.
As for A23G U37C A89G U102C G136A, the self-cleavage was 1.68.
Regarding A24G A51G A62U U87C, the self-cleavage is 1.35.
With A24C U49C A116G U130A the figure was 0.16; with A23U U43C A69G, 1.
Under A23U A69U A82G stands 0.36; under A23G A24G A54G A56G A86G U108C U120A G123A, 0.04; under A23G A55G A82U A86U, 0.27.
Consider A23G A67G A129G G136A, for which the self-cleavage amounted to 1.29.
As for A23U A68G U70C G137U, the self-cleavage was 0.78.
Turning to A24G A33U A135G, the self-cleavage worked out at 1.25.
Take A23G U57C U130C: the self-cleavage was 0.8.
As to A23G A51G U122A, the self-cleavage stood at 0.93.
For the variant A24G A36G U70C, the self-cleavage came out at 1.05.
Turning to A23G A64G C109U, the self-cleavage came to 0.44.
With A23G G75A U102A, the self-cleavage turned out to be 0.17.
As for A23G U43C A67U U72A A86G U97A A125G, the self-cleavage was 0.11.
For the variant A23G A92G U132C, the self-cleavage turned out to be 1.11.
Under A23G A56G A89G A96G stands 0.3; under A23G A52G C81U A118G, 0.41; under A23U A82G A126G, 0.43.
Consider A23U A33U A56G A125U, for which the self-cleavage was found to be 1.32.
Under A23G A47G G65A stands 0.48; under A23G A52G A96C G136C A140G, 0.65; under A23G A59G A62G, 0.94.
As to A23U U37C A47G A86U, the self-cleavage came out at 0.95.
Regarding A23G U87C A110U A129U, the self-cleavage was found to be 0.4.
Turning to A23G A30G A51G U70C, the self-cleavage was determined as 0.56.
As for A23G U49A A55G, the self-cleavage came to 1.03.
In the case of A23G U38A A68G U72A A126G, the self-cleavage worked out at 0.22.
In the case of A23G A78G A96G, the self-cleavage is 0.23.
As for A24C U43A A63G, the self-cleavage was 2.21.
On to A23C U102G A111U, for which the self-cleavage was 0.04.
Under A24G A27U G48A stands 1.35; under A24G A33G A36G U70A, 0.95; under A24G A51U A59G A92G U120C A129G, 0.12.
